Data reported in publication PMC4336329 (PLoS ONE, 2015).
Screen size: about 310,000 compounds; about 2,200 (0.71%) showed an effect of 50% or more. Effects have a minus sign here. The list shows a part of the results.

molecular target: human ether-à-go-go-related gene (hERG) potassium channel (human, UniProt Q12809); test: primary screen, population patch clamp on CHO cells stably expressing hERG
Sequence (Q12809 whole entry, looked up): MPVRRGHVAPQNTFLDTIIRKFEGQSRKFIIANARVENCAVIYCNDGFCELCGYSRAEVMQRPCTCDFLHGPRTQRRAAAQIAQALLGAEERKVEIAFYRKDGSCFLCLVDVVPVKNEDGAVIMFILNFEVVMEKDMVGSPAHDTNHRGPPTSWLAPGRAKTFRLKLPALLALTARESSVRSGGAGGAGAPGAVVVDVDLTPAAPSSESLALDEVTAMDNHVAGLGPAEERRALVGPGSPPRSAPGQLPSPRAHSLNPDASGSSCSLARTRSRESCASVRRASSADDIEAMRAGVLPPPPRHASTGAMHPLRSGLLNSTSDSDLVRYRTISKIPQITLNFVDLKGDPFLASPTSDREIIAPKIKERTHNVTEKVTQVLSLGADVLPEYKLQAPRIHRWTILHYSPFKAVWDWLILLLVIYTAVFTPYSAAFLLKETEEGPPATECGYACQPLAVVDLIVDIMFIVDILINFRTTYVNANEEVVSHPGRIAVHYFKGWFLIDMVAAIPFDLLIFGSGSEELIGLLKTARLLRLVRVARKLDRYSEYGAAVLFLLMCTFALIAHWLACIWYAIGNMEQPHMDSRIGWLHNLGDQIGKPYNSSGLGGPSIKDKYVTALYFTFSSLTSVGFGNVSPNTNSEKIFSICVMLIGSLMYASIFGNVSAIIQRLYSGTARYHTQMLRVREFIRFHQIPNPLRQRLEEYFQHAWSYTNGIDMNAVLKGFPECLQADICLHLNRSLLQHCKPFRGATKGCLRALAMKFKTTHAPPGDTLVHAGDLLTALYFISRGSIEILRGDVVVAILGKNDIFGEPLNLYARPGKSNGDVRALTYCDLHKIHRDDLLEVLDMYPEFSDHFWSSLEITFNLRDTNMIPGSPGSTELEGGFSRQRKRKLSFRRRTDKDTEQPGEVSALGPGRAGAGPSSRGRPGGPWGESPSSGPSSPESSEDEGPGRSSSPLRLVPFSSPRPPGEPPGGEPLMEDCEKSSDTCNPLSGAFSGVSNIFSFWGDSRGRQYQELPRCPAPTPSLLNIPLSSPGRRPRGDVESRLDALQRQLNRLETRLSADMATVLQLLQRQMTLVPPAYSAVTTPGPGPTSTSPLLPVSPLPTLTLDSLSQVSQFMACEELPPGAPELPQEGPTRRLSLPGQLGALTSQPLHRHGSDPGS

Row | SMILES | hERG current change (%, negative = inhibition) at 1uM [%]
1 | Cc1ccc(CCN2CC(C(=O)NCCCN3CCOCC3)CC2=O)cc1 (stereo not shown) | 16.5
2 | O=c1[nH]c(/C=C2\C=Nc3ccccc32)c(O)n1Cc1ccccc1F | 16.2
3 | NC(=O)c1ccc(-c2ncc(-c3ccccc3)o2)cc1 | 7.69
4 | N#C/C(=C\c1ccc(C(=O)O)cc1)S(=O)(=O)c1cc(Br)ccc1Br | 11.8
5 | CCCC(=O)c1c(NC)cc(C)oc1=O | 5.97
6 | CCN1CCN(CCC(=O)Nc2ccccc2C)CC1 | 0.723
7 | CSc1ncccc1C(=O)Nc1nc2ccc(Oc3ccccc3)cc2s1 | 15.1
8 | CCOC(=O)CN1C(=O)NC(C)(c2ccc(OC(F)F)cc2)C1=O (stereo not shown) | -6.41
9 | CCc1ccc(NC(=S)NCc2ccccc2)cc1 | 10.4
10 | CCOc1ccccc1N1CCN(C(=O)c2cccc(-c3ccc(O)cc3)c2)CC1 | 10.1
11 | O=C(N/N=C1\SCC(=O)N1CCc1ccccc1)c1cccs1 | 6.06
12 | O=C(NCc1cccs1)c1ccc(Cl)s1 | 8.76
13 | COc1ccccc1C(=O)NCCC(=O)Nc1cccnc1 | 9.13
14 | Cn1cccc1/C=N/NC(=O)c1cccs1 | 7.85
15 | O=C(O)CC(CC(=O)O)c1ccsc1 | 9.77
16 | COc1ccc(CCNCc2cccc(C(F)(F)F)c2)cc1OC.O=C(O)C(=O)O | 11.1
17 | C=CCn1c(COc2ccc(F)cc2)nnc1SCC(=O)NC1CCS(=O)(=O)C1 (stereo not shown) | 3.46
18 | Cc1ccc(Cn2c(SCC(=O)NCC3CCCO3)nc3ccsc3c2=O)cc1 (stereo not shown) | -3.9
19 | Cc1ccc(NC(=S)N2CCN(C(=O)c3ccccc3)CC2)c(C)c1 | 13.6
20 | C[C@H](NC(N)=O)C(=O)Nc1ccc2c(c1)OCO2 | 13.3
21 | CC1(NC(=O)Cc2ccc(S(=O)(=O)N3CCOCC3)s2)CCS(=O)(=O)C1 (stereo not shown) | 17.2
22 | COc1ccc(N(CC(=O)N2CC=C(c3ccccc3)CC2)S(=O)(=O)c2c(C)noc2C)cc1 | 13.9

Row | SMILES | hERG current change (%, negative = inhibition) at 1uM [%]
23 | CCOc1ccccc1CNC(=O)C1CCCN(c2nnc(C)c3c(C)n(-c4ccccc4)nc23)C1 (stereo not shown) | 9.86
24 | CCOc1ncccc1C(=O)Nc1ccc(S(=O)(=O)NC2=NCCCCC2)cc1 | 8.54
25 | COc1ccccc1NC(=O)CSc1nnc(-c2ccoc2C)n1CCc1ccccc1 | -5.45
26 | COc1ccc(-c2cc(=O)c3cc(OC)ccc3o2)cc1 | 14.4
27 | CCC(=O)Nc1ccc(S(=O)(=O)Nc2ccc(Cl)nn2)cc1.Cl | 10.2
28 | N#Cc1ccc(S(=O)(=O)N2CCc3[nH]c4ccc(F)cc4c3C2)cc1 | 14.2
29 | CC(=O)O[C@H]1C[C@@]2(C)[C@@H](C[C@@H](O)[C@H]3[C@@]4(C)CC[C@@H](O)[C@@H](C)[C@@H]4CC[C@@]32C)/C1=C(\CCC=C(C)C)C(=O)O | 11.9
30 | COc1ccccc1/C=C1/C(=O)N(c2ccccc2)N=C1C | -4.22
31 | Cn1c(N)c(C(=O)COC(=O)CCc2ccccc2)c(=O)n(C)c1=O | -1.42
32 | CCOc1ccc(C2=CSC3=NCCN23)cc1[N+](=O)[O-] | -61
33 | O=C(Nc1ccc(Oc2ccccc2)cc1)C1CC1 | 8.93
34 | CCC(C)NC(=O)CNC(=S)N(CCCN1CCOCC1)Cc1cccs1 (stereo not shown) | 4.34
35 | CCCCn1c(N)c(N(CCC(C)C)C(=O)C(C)N2C(=O)c3ccccc3C2=O)c(=O)[nH]c1=O (stereo not shown) | 5.4
36 | O=C(NNC(=O)C12CC3CC(CC(Cl)(C3)C1)C2)c1ccncc1 | 8.24
37 | Cc1onc(-c2ccccc2)c1C(=O)N1CCN(S(=O)(=O)c2ccccc2Br)CC1 | 13.5
38 | O=C(CNCCc1ccc(Cl)cc1)Nc1ccc(C(=O)N2CCCCC2)cc1.O=C(O)C(=O)O | 11.1
39 | O=S(=O)(NCc1ccncc1)c1ccc(S(=O)(=O)NCC2CCCO2)cc1 (stereo not shown) | -0.898
40 | COc1ccc(CNC(=O)C(c2ccncc2)N(C(=O)Cc2cccs2)c2ccc(C)cc2)cc1 (stereo not shown) | 3.87
41 | Cc1cccc(C)c1OCC(=O)Nc1ccc2c(c1)C(=O)NC2=O | 6.98
42 | O=C(CCN1C(=O)S/C(=C\c2ccccc2)C1=O)NC1CCS(=O)(=O)C1 (stereo not shown) | 9.5
43 | COc1ccccc1C(CNC(=O)c1ccc(S(=O)(=O)NCc2ccco2)cc1)N(C)C (stereo not shown) | 2.4
44 | O=C1C(=O)N(Cc2cccnc2)C(c2ccccn2)/C1=C(/O)c1ccccc1 (stereo not shown) | 6.88

Row | SMILES | hERG current change (%, negative = inhibition) at 1uM [%]
45 | O=c1cc(-c2ccccc2Cl)oc2c([N+](=O)[O-])c(O)cc(O)c12 | 10.4
46 | COc1ccc(C(=O)N2CCN(c3ccc([N+](=O)[O-])c(-n4nc(C)cc4C)c3)CC2)cc1 | -80.6
47 | Cc1cc(OC(=O)C2CC2)c([N+](=O)[O-])c(=O)[nH]1 | 6.45
48 | CCNC(=S)NNC(=O)c1cccc(Br)c1 | 13.8
49 | CC(C)C(=O)N1CCN(c2ccc(NC(=S)NC(=O)c3cc4ccccc4o3)cc2)CC1 | -0.847
50 | Cc1cccc(NC(=O)CC2SC(=O)N(c3ccccc3)C2=O)c1 (stereo not shown) | 11.4
51 | O=C(Nc1ccc(F)cc1)Nc1cccc(Br)c1 | 9.18
52 | O=C(NCCN1CCOCC1)c1cc2n(n1)C(C(F)(F)F)CC(c1ccc(F)cc1)N2 (stereo not shown) | 5.95
53 | S=C(c1ccccc1)N1CCCC1 | 14.5
54 | CC(CCc1ccc(O)cc1)NC1C2CC3CC(C2)CC1C3 (stereo not shown) | -0.0399
55 | CCOc1ccc(NS(=O)(=O)c2ccc(C(=O)N3CCN(c4ncccn4)CC3)cc2)cc1 | 3.38
56 | CCc1ccc(C(C)NC(=O)Cn2cnc3c(=O)n(C)c(=O)n(C)c32)cc1 (stereo not shown) | -1
57 | O=C(Nc1cccnc1)c1ccccc1Cl | 0.408
58 | CCOC(=O)c1[nH]c2ccc(Cl)cc2c1NC(=O)c1nonc1C | 12
59 | COCCNC(=O)/C(C#N)=C/c1ccc(-c2ccc(OC)cc2[N+](=O)[O-])o1 | -6.06
60 | COc1ccc(-n2c(CCc3ccccc3)n[nH]c2=S)cc1 | 15.8
61 | Cc1cc(-c2ccco2)n(CC(=O)NCc2ccco2)n1 | 16.3
62 | O=C(O)CC(CC(=O)Nc1nncs1)c1ccccc1 (stereo not shown) | 8.87
63 | CCC1(c2ccc(OC)cc2)NC(=O)N(CC(=O)c2ccc3c(c2)OCCO3)C1=O (stereo not shown) | 10.7
64 | COCCNC(=O)C1Nc2ccc(OC(F)(F)F)cc2C2C=CCC12 (stereo not shown) | 4.25
65 | CC(C)c1c(O)nc(SCC(=O)N2CCOCC2)[nH]c1=O | -2.63
66 | FC(F)(F)c1cccc(CNC2CCN(Cc3ccccc3)CC2)c1 | 11.8

Row | SMILES | hERG current change (%, negative = inhibition) at 1uM [%]
67 | CC(=O)C[C@H]1c2cc(C(F)(F)F)ccc2S(=O)(=O)N1C1CCCC1 | 9.82
68 | C=CCOc1ccc(Cl)cc1C(=O)O | 7.8
69 | Cc1ccc(-c2cn(CCN)c(-c3ccncc3)n2)cc1 | 1.22
70 | CC1Cc2nc(SCC(=O)N3CCCC3)n(C)c(=O)c2S1 (stereo not shown) | 1.54
71 | Cc1ccc(NC(=O)c2ccc(CSc3nnc(-c4ccncc4)n3C)cc2)c(C)c1 | 4.59
72 | CC(=O)c1cccc(CN2CCN(Cc3ccccc3)C(CCO)C2)c1 (stereo not shown) | 2.26
73 | CCOC(=O)Cc1cc(-c2ccc(O)cc2)nc2ccc3ccccc3c12 | -2.68
74 | CC1C(c2cccs2)=[N+]([O-])C(C)(C(=O)c2cccs2)N1O (stereo not shown) | 17.5
75 | CCOC(=O)c1cc(-c2ccco2)nc2c1c(C)nn2-c1ccccc1 | 15.1
76 | N#Cc1ccccc1OCC(=O)NNC(=O)c1ccncc1 | 19.1
77 | Clc1ccc(CNC23CN4CN(CN(C4)C2)C3)c(Cl)c1 | 10.3
78 | CC(=O)Nc1ccc(CN2CCN(C3CCCCC3)C(CCO)C2)cc1 (stereo not shown) | 12.7
79 | COc1ccccc1/C=N/NC(=O)C(C)Cn1cnc2ccccc21 (stereo not shown) | 9.28
80 | CCC(C)NS(=O)(=O)c1ccc(S(=O)(=O)N(CCc2ccc(OC)c(OC)c2)Cc2cccs2)cc1 (stereo not shown) | 3.7
81 | CN1CCN(c2nc(-c3cccnc3)nc3ccccc23)CC1 | 3.46
82 | COc1ccc(OC)c(NC(=O)CSc2nnnn2C)c1 | 14.5
83 | CCN1CCN(C2=C(NS(=O)(=O)c3ccc(Br)cc3)C(=O)c3ccccc3C2=O)CC1 | -25.7
84 | Br.Cn1c(=N)n(CC(=O)c2cccs2)c2ccccc21 | 8.95
85 | Cc1noc(NS(=O)(=O)c2ccc(NC(=O)C(C)C)cc2)c1C | 16.7
86 | COc1cc(O)c(C(CC(=O)N2CCN(c3ccccc3)CC2)c2cc(OC)c(OC)c(OC)c2)c(OC)c1 (stereo not shown) | 23.2
87 | Cc1ccc2nc(NC(=O)CN(C)S(=O)(=O)c3cccc4nsnc34)sc2c1 | 17.2
88 | Cc1onc(-c2ccc(Cl)cc2Cl)c1-c1csc(COc2ccccc2)n1 | 11.7
